PMC4336329 (PLoS ONE, 2015)
Out of some 310,000 compounds screened, about 2,200 (0.71%) showed an effect of 50% or more. The effect is printed as a negative number. Some of the results follow. Where a SMILES comes first, the peptide text is derived from it. [ ]: non-standard residue; d: D form. pGlu = O=C1CC[CH](C(=O)O)N1

These molecules were tested against human ether-à-go-go-related gene (hERG) potassium channel (human, UniProt Q12809) (assay: primary screen, population patch clamp on CHO cells stably expressing hERG).
Sequence of human ether-à-go-go-related gene (hERG) potassium channel (Q12809 whole entry, looked up): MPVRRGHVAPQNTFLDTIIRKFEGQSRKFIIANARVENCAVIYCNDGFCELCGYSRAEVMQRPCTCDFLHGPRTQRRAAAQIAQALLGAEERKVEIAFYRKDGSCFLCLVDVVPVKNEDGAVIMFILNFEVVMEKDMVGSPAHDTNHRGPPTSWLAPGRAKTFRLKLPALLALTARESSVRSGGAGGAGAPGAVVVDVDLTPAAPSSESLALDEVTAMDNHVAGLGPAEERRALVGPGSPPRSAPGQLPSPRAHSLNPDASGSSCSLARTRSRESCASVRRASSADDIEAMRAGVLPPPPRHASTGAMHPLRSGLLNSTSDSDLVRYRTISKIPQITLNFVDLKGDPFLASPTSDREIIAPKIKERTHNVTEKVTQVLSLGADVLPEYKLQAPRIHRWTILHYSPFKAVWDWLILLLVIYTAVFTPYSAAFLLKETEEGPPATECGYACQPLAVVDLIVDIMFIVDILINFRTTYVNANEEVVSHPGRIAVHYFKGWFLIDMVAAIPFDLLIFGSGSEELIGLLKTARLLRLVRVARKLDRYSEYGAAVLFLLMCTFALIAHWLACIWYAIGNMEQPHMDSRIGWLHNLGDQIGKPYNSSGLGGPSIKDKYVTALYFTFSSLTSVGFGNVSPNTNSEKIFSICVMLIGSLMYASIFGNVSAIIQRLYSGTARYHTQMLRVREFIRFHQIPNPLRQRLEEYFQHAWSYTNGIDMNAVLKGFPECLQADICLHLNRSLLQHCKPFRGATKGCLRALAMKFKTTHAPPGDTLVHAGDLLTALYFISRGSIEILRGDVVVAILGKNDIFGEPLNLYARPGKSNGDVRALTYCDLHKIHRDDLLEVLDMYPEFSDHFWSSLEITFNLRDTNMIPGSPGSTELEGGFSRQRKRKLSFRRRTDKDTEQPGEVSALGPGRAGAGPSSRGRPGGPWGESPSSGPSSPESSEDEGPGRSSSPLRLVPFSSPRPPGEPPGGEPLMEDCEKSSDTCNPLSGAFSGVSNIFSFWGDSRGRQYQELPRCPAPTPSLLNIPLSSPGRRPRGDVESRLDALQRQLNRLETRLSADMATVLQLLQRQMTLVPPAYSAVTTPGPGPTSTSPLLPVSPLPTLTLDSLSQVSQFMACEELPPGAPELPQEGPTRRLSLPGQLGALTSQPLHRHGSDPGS

| SMILES | hERG current change (%, negative = inhibition) at 1uM [%] |
| --- | --- |
| C=CCn1c(O)c(N=NC(=O)CNC(=O)/C=C/c2ccco2)c2ccccc21 | -15.5 |
| CCOC(=O)Cn1nc(/C=C/c2ccc(C(C)C)cc2)ccc1=O | 12.2 |
| O=C(CCNC(=O)c1ccccc1Cl)NCC12CC3CC(CC(C3)C1)C2 | 12.7 |
| Cc1ccc([C@@H]2[C@@H]3C(=O)N(C)C(=O)[C@@H]3[C@]3(C)C(=O)N(CCO)CC(=O)N23)o1 | -19.9 |
| CC1CCCN(C(=O)CN2C(=O)C(C)Oc3ccccc32)C1 (stereo not drawn) | 9.82 |
| CN1CCN(/N=C/c2c(O)n(Cc3ccc(F)cc3)c(=O)[nH]c2=O)CC1 | 10.4 |
| COC(=O)Cn1c(=NC(=O)CCS(=O)(=O)c2ccccc2)sc2c(OC)ccc(OC)c21 | 12.9 |
| CCOc1ccccc1NC(=O)CN1C(=O)CSC(C)C1=O (stereo not drawn) | 2.34 |
| COc1ccccc1N1CCN(C(=O)CSc2nnc3n2C(C)(C)Cc2ccccc2-3)CC1 | -5.9 |
| CCc1ccccc1NC(=O)CCC(=O)N1CCSc2ccccc21 | 7.25 |
| O=C(Cn1c(=O)n(Cc2ccco2)c(=O)c2cc(Cl)ccc21)NCC1CCCO1 (stereo not drawn) | -2.91 |
| NC(N)=NCCC[C@H](NC(=O)OCc1ccccc1)C(=O)O | 18 |
| Cc1cnc(C(=O)OCC(=O)N(C(C)C)C(C)C)cn1 | 17.3 |
| CC(C)c1ccc(/C=C2\SC(=O)N(CC(=O)NC3C=CS(=O)(=O)C3)C2=O)cc1 (stereo not drawn) | 9.92 |
| O=C(NC1(C(F)(F)F)C(=O)Nc2c1c(=O)[nH]c(=O)n2-c1ccc(F)cc1)c1cccnc1 (stereo not drawn) | 19.6 |
| CCSc1nnc(NC(=O)CSc2ncccn2)s1 | 6.95 |
| O=C(Nc1cc(C(F)(F)F)ccc1N1CCCC1)c1ccc2c(c1)OCO2 | 11 |
| CCOc1ccc(CN2CCC(=O)NC2=O)cc1 | 4.34 |
| Cc1ccc(-n2ccc(=O)c(C(=O)Nc3ccc(S(=O)(=O)Nc4nccs4)cc3)n2)cc1 | 16.3 |
| Cc1ccc(Cl)cc1N1CCN(C(=O)CCC(=O)O)CC1 | 8.57 |
| Brc1ccccc1-n1nnc(-c2cccnc2)n1 | 0.231 |
| CCOC(=O)Cc1csc(NC(=O)CSc2nc3sc(C(=O)O)c(C)c3c(=O)[nH]2)n1 | -7.54 |

| SMILES | hERG current change (%, negative = inhibition) at 1uM [%] |
| --- | --- |
| Cc1ccc(S(=O)(=O)C2(C(=O)NCc3ccc4c(c3)OCO4)CC2)cc1 | 6.21 |
| COc1cc([N+](=O)[O-])ccc1NC(=O)NNC(=O)c1sccc1C | -1.62 |
| CCCCN(C)CCC(=O)Nc1ccc(C)cc1.Cl | 7.37 |
| O=C(CSc1nc2ncc(Cl)cc2[nH]1)NC1CCS(=O)(=O)C1 (stereo not drawn) | 24.4 |
| Cc1ccc(S(=O)(=O)N2CCCCC2)cc1C(=O)Nc1ccc(N2CCOCC2)cc1 | 2.48 |
| CC1CCN(S(=O)(=O)c2ccc(-c3nnc(SCc4cccnc4)o3)cc2)CC1 | 15.6 |
| COc1ccc(-c2ccc(CNCc3ccccn3)o2)cc1Cl.Cl | 6.23 |
| Cc1cc(C)c(C#N)c(SCCN2CCOCC2)n1 | 18 |
| O=C(COc1ccc([N+](=O)[O-])cc1)Nc1ccc(S(=O)(=O)N2CCOCC2)cc1 | -55.1 |
| CCOC(=O)N1CCN(C(=O)COc2cccc3c2CCN(Cc2cccc(C)c2)C3=O)CC1 | -19.2 |
| O=S(=O)(Nc1ccc(-c2csc(-c3ccccc3)n2)cc1)c1ccc(F)cc1 | 13.1 |
| CCCc1nnc(SCC(=O)N(CC)CC)n1CC1CCCO1 (stereo not drawn) | 13.1 |
| Cc1cc(CN2C(=O)c3ccccc3C2=O)cc(N2CCOCC2)c1 | 13.4 |
| CCN(Cc1ccccc1)S(=O)(=O)c1ccc(S(=O)(=O)N2CCN(CCC#N)CC2)cc1 | 3.94 |
| CCc1cccc2c(SC(C)C(=O)NCC3CCCO3)nc(-c3ccccc3)nc12 (stereo not drawn) | 9.01 |
| Cc1ccc(S(=O)(=O)CC(O)COc2ccc(C#N)cc2)cc1 (stereo not drawn) | -18 |
| N#Cc1ccc(-c2cn3c(n2)SCC3)cc1 | 7.45 |
| Cc1cc(NC(=O)CSc2nc3ccsc3c(=O)n2CCCC(=O)NCCc2ccccc2)no1 | 5.94 |
| CCC(=O)c1cn(Cc2ccccc2C#N)c2ccccc12 | 9.19 |
| Cc1c(C2(O)CCCCC2)[nH]c2ncccc12 | 15 |
| O=C(O)c1ccc(/C=N/NC(=O)c2cc3c(ccc4ccccc43)o2)cc1 | 8.02 |
| COc1ccc(C)cc1NC(=O)c1ccc2c(c1)OCO2 | 0.84 |

| SMILES | hERG current change (%, negative = inhibition) at 1uM [%] |
| --- | --- |
| Cc1cc2c(c(=O)n1C)C(C(C)C)C(C#N)=C(N)O2 (stereo not drawn) | 12.8 |
| Cc1[nH]nc2c1C1(CCOCC1)C(C#N)=C(N)O2 | -4.73 |
| NNC(=O)c1nn(-c2ccc(Cl)cc2)ccc1=O | -6.81 |
| O=C1NN=C(c2ccc(Cl)cc2)CC1c1c[nH]c2ccccc12 (stereo not drawn) | 12.4 |
| Cc1ccc(Nc2cc(C)nc(NCc3ccccc3)n2)cc1 | 5.11 |
| Cc1cccc2[nH]c(CN(C)C(=O)CC3C(=O)NCCN3CC(C)(C)C)nc12 (stereo not drawn) | 9.04 |
| CSc1n[nH]c(NC(=O)c2c(-c3c(Cl)cccc3Cl)noc2C)n1 | 9.6 |
| O=C(NCCc1ccc(Cl)cc1)c1nnc(Cc2ccc(Cl)cc2)o1 | 15.7 |
| CC(=O)N(CCC(Cc1ccccc1)c1ccco1)Cc1ccco1 (stereo not drawn) | 2.35 |
| O=C1c2ccccc2C(Nc2ccc(Cl)cc2)N1CCN1CCOCC1 (stereo not drawn) | 2.05 |
| CCOC(=O)c1ccc(NC(=S)NNC(=O)c2cc(-c3cccnc3)nc3ccccc23)cc1 | 15.9 |
| C=CCn1c(O)c(N=NC(=S)Nc2ccccc2F)c2cc(S(=O)(=O)N3CCOCC3)ccc21 | 9.01 |
| Cc1ccc(C)c(SCC(=O)Nc2nnc(-c3ccccc3)o2)c1 | 13.9 |
| CCN(CC(=O)Nc1ccc(NC(C)=O)cc1)C(=O)/C=C/c1ccccc1 | 7.96 |
| CCOC(=O)C1=C(COC(=O)c2ccc([N+](=O)[O-])o2)NC(=O)NC1C (stereo not drawn) | 2.11 |
| CCOc1cc(NC(=S)NCc2ccco2)c(OCC)cc1NC(=O)C1CC1 | 11.8 |
| COc1ccc(N(CC(=O)Nc2cccnc2)S(C)(=O)=O)cc1 | -9.54 |
| N=c1nc(-c2ccccc2)ccn1O | 9.31 |
| O=C(Nc1ccc(Cl)cc1)N1CCC(c2ccccc2)C1 (stereo not drawn) | -1.01 |
| COc1cccc(NC(=O)CN2C(=O)NC(C)(c3ccc(C)cc3)C2=O)c1 (stereo not drawn) | 4.84 |
| CCOc1ccc(S(=O)(=O)Nc2ccc(C(=O)NNC(=O)c3ccncc3)cc2)cc1 | 15.8 |
| O=C(/C=C/c1cccs1)N1CCN(c2ccc(O)cc2)CC1 | -0.394 |

| SMILES | hERG current change (%, negative = inhibition) at 1uM [%] |
| --- | --- |
| CCN(C(=O)COC(=O)c1c2c(nc3ccccc13)/C(=C/c1ccccc1)CC(C)C2)C1CCS(=O)(=O)C1 (stereo not drawn) | -3.95 |
| O=C(CN1C(=O)NC2(CCCCC2)C1=O)Oc1ccc2c(C(F)(F)F)cc(=O)oc2c1 | 14.9 |
| CCC(C)NCCOCCOc1ccc(C)cc1OC.O=C(O)C(=O)O (stereo not drawn) | 12.5 |
| CCCCOc1ccc(N(CC(=O)NC2CCCC2)C(=O)CCC(=O)Nc2ccccn2)cc1 | 17.1 |
| COc1cc2[nH]c(=S)nc(NCC3CCCO3)c2cc1OC (stereo not drawn) | 1.63 |
| CCCc1nnc(NC(=O)CCC(=O)NCCc2ccc(Cl)cc2)s1 | 8.03 |
| COc1cccc(/C=N/NC(=O)c2cc3c(OC)cccc3[nH]2)c1OC | 14.5 |
| CCOc1cc(CNCCN2CCOCC2)ccc1OCc1ccccc1Cl.Cl | -8.01 |
| CN(C)C(Cc1ccccc1)C(=O)c1c[nH]c2ccccc12.Cl (stereo not drawn) | 7.43 |
| CCN(c1ccc(OC)cc1)S(=O)(=O)c1nnc(NC(=O)C(C)C)s1 | 11.6 |
| Cc1nn(Cc2ccc(Cl)cc2)c(C)c1NC(=O)CSc1n[nH]c(C)c1[N+](=O)[O-] | 7.18 |
| Cc1ccc(Cl)cc1N1CCN(Cc2cc(=O)n3ccsc3n2)CC1 | 11 |
| CC(C)CC(NC(=O)C1CCC(=O)N1)C(=O)NC(CC(C)C)C(=O)N1CCCC1C(N)=O (stereo not drawn) ([pGlu]LLP-NH2; configuration not given here) | 15.1 |
| Cc1nn(C)c(Cl)c1/C=N/OC(=O)c1ccccc1 | 12.7 |
| COc1ccc(O)c(CN2CCC(n3nccc3NC(=O)c3ccccc3Cl)CC2)c1 | -15.4 |
| N/C(=N\OC(=O)c1ccoc1)c1ccc(Br)cc1 | 0.729 |
| Br.N=c1n(CC(=O)c2ccc(Br)s2)c2ccccc2n1Cc1ccccc1 | -13.1 |
| Cc1cc(Cl)c(S(=O)(=O)Nc2cccc(O)c2)cc1OCC(N)=O | 7.41 |
| CC1CC(C)CN(S(=O)(=O)c2cccc3cccnc23)C1 (stereo not drawn) | 12.6 |
| O=C(OCc1csc(-c2ccccc2)n1)c1ccc(O)cc1 | 10.1 |
| CN(C)CCNC(=O)C1CCCNC1=O (stereo not drawn) | 1.68 |
